The other results are listed elsewhere or left out.
What was measured:
Assay in all cases: glycan array binding signal (z-score within array); higher = stronger binding
Settings in all cases: glycan notation: IUPAC condensed, linker removed
Gal3S(b1-4)GlcNAc6S = target: Gal3S(b1-4)GlcNAc6S
Method in brief: (§1)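 The Consortium for Functional Glycomics database supplied 3228 glycan arrays, of which those lacking an available protein sequence were dropped. The binding signal, a within-array Z-score, was averaged across arrays of the same protein sequence and across linkers. Negative scores can be read as non-binding.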

[1] = target: Gal3S(b1-4)[Fuc(a1-3)]Glc
Method in brief: as §1

[2] = target: Gal3S(b1-4)[Fuc(a1-3)]Glc6S
Method in brief: as §1

[3] = target: Gal3S(b1-4)[Fuc(a1-3)]GlcNAc
Method in brief: as §1

[4] = target: Gal3S(b1-4)[Fuc(a1-3)]GlcNAc6S
Method in brief: as §1

Gal3S4S(b1-4)GlcNAc = target: Gal3S4S(b1-4)GlcNAc
Method in brief: as §1

Gal3S6S(b1-4)GlcNAc = target: Gal3S6S(b1-4)GlcNAc
Method in brief: as §1

Gal3S6S(b1-4)GlcNAc6S = target: Gal3S6S(b1-4)GlcNAc6S
Method in brief: as §1

Gal4S(b1-4)GlcNAc = target: Gal4S(b1-4)GlcNAc
Method in brief: as §1

Gal4S6S(b1-4)GlcNAc = target: Gal4S6S(b1-4)GlcNAc
Method in brief: as §1

Gal6P(b1-4)GlcNAc = target: Gal6P(b1-4)GlcNAc
Method in brief: as §1

Gal6S(b1-3)GlcNAc = target: Gal6S(b1-3)GlcNAc
Method in brief: as §1

Gal6S(b1-3)GlcNAc6S = target: Gal6S(b1-3)GlcNAc6S
Method in brief: as §1

[5] = target: Gal6S(b1-3)[Fuc(a1-4)]GlcNAc(b1-3)Gal(b1-4)Glc
Method in brief: as §1

Gal6S(b1-4)Glc = target: Gal6S(b1-4)Glc
Method in brief: as §1

Gal6S(b1-4)Glc6S = target: Gal6S(b1-4)Glc6S
Method in brief: as §1

Gal6S(b1-4)GlcNAc = target: Gal6S(b1-4)GlcNAc
Method in brief: as §1

Gal6S(b1-4)GlcNAc6S = target: Gal6S(b1-4)GlcNAc6S
Method in brief: as §1

GalNAc(a1-3)Gal = target: GalNAc(a1-3)Gal
Method in brief: as §1

GalNAc(a1-3)Gal(b1-4)Glc = target: GalNAc(a1-3)Gal(b1-4)Glc
Method in brief: as §1

GalNAc(a1-3)GalNAc = target: GalNAc(a1-3)GalNAc
Method in brief: as §1

[6] = target: GalNAc(a1-3)GalNAc(a1-3)Gal(a1-4)Gal(b1-4)GlcNAc
Method in brief: as §1

[7] = target: GalNAc(a1-3)GalNAc(b1-3)Gal(a1-4)Gal(b1-4)Glc
Method in brief: as §1

[8] = target: GalNAc(a1-3)GalNAc(b1-3)Gal(a1-4)Gal(b1-4)GlcNAc
Method in brief: as §1

GalNAc(b1-3)Gal = target: GalNAc(b1-3)Gal
Method in brief: as §1

[9] = target: GalNAc(b1-3)Gal(a1-4)Gal(b1-4)GlcNAc
Method in brief: as §1

[10] = target: GalNAc(b1-3)Gal(a1-4)Gal(b1-4)GlcNAc(b1-3)Gal(b1-4)Glc
Method in brief: as §1

[11] = target: GalNAc(b1-3)Gal(a1-6)Gal(b1-4)Glc
Method in brief: as §1

GalNAc(b1-3)GalNAc = target: GalNAc(b1-3)GalNAc
Method in brief: as §1

GalNAc(b1-3)GlcNAc = target: GalNAc(b1-3)GlcNAc
Method in brief: as §1

GalNAc(b1-4)Gal(b1-4)Glc = target: GalNAc(b1-4)Gal(b1-4)Glc
Method in brief: as §1

[12] = target: GalNAc(b1-4)Gal3S(b1-4)Glc
Method in brief: as §1

GalNAc(b1-4)GlcNAc = target: GalNAc(b1-4)GlcNAc
Method in brief: as §1

[13] = target: GalNAc(b1-4)GlcNAc(b1-2)Man
Method in brief: as §1

[14] = target: GalNAc(b1-4)GlcNAc(b1-2)Man(a1-3)[GalNAc(b1-4)GlcNAc(b1-2)Man(a1-6)]Man(b1-4)GlcNAc(b1-4)GlcNAc
Method in brief: as §1

[15] = target: GalNAc(b1-4)GlcNAc(b1-3)GalNAc(b1-4)GlcNAc
Method in brief: as §1

GalNAc(b1-4)GlcNAc6S = target: GalNAc(b1-4)GlcNAc6S
Method in brief: as §1

[16] = target: GalNAc(b1-4)[Neu5Ac(a2-6)]Gal(b1-4)Glc
Method in brief: as §1

GalNAc(b1-6)GalNAc = target: GalNAc(b1-6)GalNAc
Method in brief: as §1

[17] = target: GalNAc3S(b1-4)Gal3S(b1-4)Glc
Method in brief: as §1

GalNAc3S(b1-4)GlcNAc = target: GalNAc3S(b1-4)GlcNAc
Method in brief: as §1

GalNAc3S(b1-4)GlcNAc3S = target: GalNAc3S(b1-4)GlcNAc3S
Method in brief: as §1

[18] = target: GalNAc3S(b1-4)[Fuc(a1-3)]GlcNAc
Method in brief: as §1

GalNAc4S6S(b1-4)GlcNAc = target: GalNAc4S6S(b1-4)GlcNAc
Method in brief: as §1

GalNAc6S(b1-4)GlcNAc = target: GalNAc6S(b1-4)GlcNAc
Method in brief: as §1

B1: CLEC5A (Homo sapiens), Q9NY25 (protein)
chain: MNWHMIISGLIVVVLKVVGMTLFLLYFPQIFNKSNDGFTTTRSYGTVSQIFGSSSPSPNGFITTRSYGTVCPKDWEFYQARCFFLSTSESSWNESRDFCKGKGSTLAIVNTPEKLKFLQDITDAEKYFIGLIYHREEKRWRWINNSVFNGNVTNQNQNFNCATIGLTKTFDAASCDISYRRICEKNAK
In the case of B1, the “glycan array binding signal (z-score)” value (Gal3S(b1-4)GlcNAc6S) is reported as 0.016, the “glycan array binding signal (z-score)” value [1] is reported as -0.432 and the “glycan array binding signal (z-score)” value [2] is reported as 0.196. For the same binder, the “glycan array binding signal (z-score)” value [3] was -0.164, the “glycan array binding signal (z-score)” value [4] was 0.099 and the “glycan array binding signal (z-score)” value (Gal3S4S(b1-4)GlcNAc) was -0.351. For the same binder, the “glycan array binding signal (z-score)” value (Gal3S6S(b1-4)GlcNAc) was -0.149, the “glycan array binding signal (z-score)” value (Gal3S6S(b1-4)GlcNAc6S) was 1.45 and the “glycan array binding signal (z-score)” value (Gal4S(b1-4)GlcNAc) was -0.21. For the same binder, the “glycan array binding signal (z-score)” value (Gal4S6S(b1-4)GlcNAc) was -0.117, the “glycan array binding signal (z-score)” value (Gal6P(b1-4)GlcNAc) was -0.196 and the “glycan array binding signal (z-score)” value (Gal6S(b1-3)GlcNAc) was -0.014. The “glycan array binding signal (z-score)” value (Gal6S(b1-3)GlcNAc6S) was -0.066, the “glycan array binding signal (z-score)” value [5] was 1.03 and the “glycan array binding signal (z-score)” value (Gal6S(b1-4)Glc) was 0.056. For the same binder, the “glycan array binding signal (z-score)” value (Gal6S(b1-4)Glc6S) was 0.125, the “glycan array binding signal (z-score)” value (Gal6S(b1-4)GlcNAc) was 0.281 and the “glycan array binding signal (z-score)” value (Gal6S(b1-4)GlcNAc6S) was 0.161. The “glycan array binding signal (z-score)” value (GalNAc(a1-3)Gal) was -0.117, the “glycan array binding signal (z-score)” value (GalNAc(a1-3)Gal(b1-4)Glc) was -0.32 and the “glycan array binding signal (z-score)” value (GalNAc(a1-3)GalNAc) was -0.157. For the same binder, the “glycan array binding signal (z-score)” value [6] was -0.892, the “glycan array binding signal (z-score)” value [7] was -0.196 and the “glycan array binding signal (z-score)” value [8] was -0.128. For the same binder, the “glycan array binding signal (z-score)” value (GalNAc(b1-3)Gal) was 0.192, the “glycan array binding signal (z-score)” value [9] was -0.205 and the “glycan array binding signal (z-score)” value [10] was -0.273. For the same binder, the “glycan array binding signal (z-score)” value [11] was -0.253, the “glycan array binding signal (z-score)” value (GalNAc(b1-3)GalNAc) was -0.568 and the “glycan array binding signal (z-score)” value (GalNAc(b1-3)GlcNAc) was -0.198. For the same binder, the “glycan array binding signal (z-score)” value (GalNAc(b1-4)Gal(b1-4)Glc) was -0.144, the “glycan array binding signal (z-score)” value [12] was -0.32 and the “glycan array binding signal (z-score)” value (GalNAc(b1-4)GlcNAc) was -0.135. For the same binder, the “glycan array binding signal (z-score)” value [13] was -0.054, the “glycan array binding signal (z-score)” value [14] was 0.616 and the “glycan array binding signal (z-score)” value [15] was -0.136. For the same binder, the “glycan array binding signal (z-score)” value (GalNAc(b1-4)GlcNAc6S) was -0.117, the “glycan array binding signal (z-score)” value [16] was -0.32 and the “glycan array binding signal (z-score)” value (GalNAc(b1-6)GalNAc) was -0.194. For the same binder, the “glycan array binding signal (z-score)” value [17] was -0.32, the “glycan array binding signal (z-score)” value (GalNAc3S(b1-4)GlcNAc) was -0.162 and the “glycan array binding signal (z-score)” value (GalNAc3S(b1-4)GlcNAc3S) was -0.138. For the same binder, the “glycan array binding signal (z-score)” value [18] was -0.255, the “glycan array binding signal (z-score)” value (GalNAc4S6S(b1-4)GlcNAc) was -0.168 and the “glycan array binding signal (z-score)” value (GalNAc6S(b1-4)GlcNAc) was -0.003.

From the supplement of paper PMC8728848
